# According to PubChem BioAssay AID686971 (National Center for Advancing Translational Sciences (NCATS), 2013):
# Values joined by “and” are separate entries in the source; they are usually repeats but may differ in a detail not shown here. Identical values can stand only once. Out of some 360,000 compounds screened, about 7,500 (2.1%) were called active. This list was built around the results that the source calls inconclusive (neither active nor inactive); the mix of calls is not that of the screen. Calls come from the whole dose curve; as a rule, active = well fitted cell-killing curve with a large enough effect; inconclusive = small, poorly fitted or top-dose-only effect, or effect the other way, or another doubt; inactive = no such curve, though single readings can be large or run the other way. Potencies beside an inconclusive call are fits to weak or partial responses and may not hold up.
# Test: qHTS for induction of synthetic lethality in tumor cells producing 2HG: qHTS for the HT-1080-IDH1KD cell line;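 for activity, negative = toxicity: 0% = DMSO wells and -100% = cell-free medium wells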
# Details: HT-1080 IDH1 knockdown viability, ATP luminescence, 48 h; activity, negative = toxicity: at 46.1 µM (top of the series) unless noted
# Summary of the method: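 % activity derives from luminescence (CellTiter-Glo), normalised to DMSO and no-cell wells. HT-1080-IDH1KD cells, 750/well, had 48 h compound exposure at 37 °C.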
# Potency is the fitted concentration of half-maximal effect; tags give direction and shape of the fitted curve.
SMILES,Potency,"activity, negative = toxicity"
COc1ccc(C)cc1NCc1cc(=O)oc2cc(-c3ccccc3)c(O)cc12,"inconclusive: 20.6 µM [cytotoxic, single point]",
COC(=O)Nc1nc2ccc(-c3n[nH]c(=O)c4ccccc34)cc2[nH]1,"inconclusive: 2.06 µM [cytotoxic, single point]",
Cc1cc(C)cc(NC(=O)CSc2ccc(-c3ccccn3)nn2)c1,"inconclusive: 16.4 µM [cytotoxic, single point]",
COc1cncc(-c2cnc3sc(NCCc4ccccn4)nn23)c1,"inconclusive: 11.6 µM [cytotoxic, partial curve]",
O=C(/C=C/c1ccc(Cl)cc1)NC(=S)Nc1ccccc1C(=O)O,"inconclusive: 18.4 µM [cytotoxic, single point]",
OC(c1ccc(Cl)c(F)c1)c1ncc(-c2cccc(C(F)(F)F)c2)[nH]1 (stereo not drawn),"inconclusive: 18.4 µM [cytotoxic, single point]",
CN(/N=C/c1ccc(Br)o1)C1=NS(=O)(=O)c2ccccc21,"inconclusive: 16.4 µM [cytotoxic, single point]",
Cc1cc(C)nc(S/C=C/C(=O)c2ccccc2)n1,active: 3.66 µM,
Cc1cc(C)nc(SCc2nc(N)nc(-c3ccccc3O)n2)n1,inactive,
Cc1cc(Nc2ccc([N+](=O)[O-])cc2)nc2ccccc12,"inconclusive: 29.1 µM [cytotoxic, single point]",
COc1ccc(OC)c(-c2cc(C3CCN(c4cc(Cl)nc(N)n4)CC3)[nH]n2)c1,"inconclusive: 18.4 µM [cytotoxic, partial curve]",
COc1ccc(C(C(=O)NC(C)(C)C)N(C(=O)CCC(=O)Nc2cc(C)on2)c2ccccc2F)cc1 (stereo not drawn),inactive,
Cc1[nH]c2ccccc2c1CCNC(=O)c1ccc2c(c1[N+](=O)[O-])C(=O)c1ccccc1C2=O,"inconclusive: 14.6 µM [cytotoxic, partial curve]",
COc1cccc(C(O)c2nc(/C=C/c3ccc(C(F)(F)F)cc3)cs2)c1 (stereo not drawn),"inconclusive: 29.1 µM [cytotoxic, single point]",
O=C(NCc1nnc(SCC(=O)N2CCOCC2)o1)c1c(F)cccc1Cl,inactive,
CCN(CC)S(=O)(=O)c1cccc(NC(=O)/C=C/c2cccc([N+](=O)[O-])c2)c1,inactive,
C=CCNC(=O)Cn1nnc(-c2ccc(-c3ccc(OC)cc3)cc2)n1,inactive,
CCOC(=O)C(C(=O)Nc1ccc(C)cc1)C1CCCCC1 (stereo not drawn),"inconclusive: 23.1 µM [cytotoxic, single point]",
CS(=O)(=O)Nc1ccc(C2=NN(C(=O)c3ccco3)C(c3ccco3)C2)cc1 (stereo not drawn),"inconclusive: 29.1 µM [cytotoxic, single point]",
O=S(=O)(c1ccc2ccccc2c1)N1CCN(C(=S)Nc2ccc(F)c(Cl)c2)CC1,"inconclusive: 29.1 µM [cytotoxic, single point]",
Cc1ccc(NC(=O)c2ccc(F)c(S(=O)(=O)N3CCOCC3)c2)cc1F,"inconclusive: 35.5 µM [cytotoxic, single point]",
COc1ccc(CC(=O)Nc2sc(Cc3ccccc3)c(C)c2C(N)=O)cc1,"inconclusive: 14.1 µM [cytotoxic, partial curve]",
O=c1[nH]c(CSc2nnc(COc3ccccc3)n2-c2ccccc2)nc2ccccc12,"inconclusive: 35.5 µM [cytotoxic, single point]",

SMILES,Potency,"activity, negative = toxicity"
COc1cc(/C=C/c2ccc3cccc(O)c3n2)ccc1O,"inconclusive: 29.1 µM [cytotoxic, single point]",
O=C(CC[C@H]1O[C@@H](n2ccc(=O)[nH]c2=O)[C@H](O)[C@@H]1O)N[C@H](Cc1ccccc1)C(=O)NCc1ccccc1,inactive,
CCN1C(=O)c2cccc3c(S(=O)(=O)N(C(=O)c4cccnc4)c4ccc(OC)cc4)ccc1c23,"inconclusive: 23.1 µM [cytotoxic, partial curve]",
CS(=O)(=O)N(CC(=O)N1CCN(c2ccc(F)cc2)CC1)c1ccc(F)c(Cl)c1,inactive,
COc1cccc(NC(=O)C2CCN(S(=O)(=O)c3ccc4c(c3)OCCO4)CC2)c1,"inconclusive: 29.1 µM [cytotoxic, single point]",
Cc1ccccc1-c1cnc(C(O)c2ccc(C(C)(C)C)cc2)[nH]1 (stereo not drawn),"inconclusive: 20.6 µM [cytotoxic, partial curve]",
COc1ccc(OC)c(CCNC(=O)c2cccc(NC(=O)C3=C(C)OCCS3)c2)c1,"inconclusive: 20.6 µM [cytotoxic, single point]",
CC(=O)Oc1ccc(C(=O)Nc2cccc(NC(=O)c3ccco3)c2)cc1,inactive,
O=C(Nc1ccc(-c2nc3cccnc3s2)cc1)c1ccc(Br)o1,inactive,
Cc1ccc(C(=O)c2coc3c2C(=O)C(=O)c2ccccc2-3)cc1,"inconclusive: 31.6 µM [cytotoxic, single point]",
OCCN1CCN(c2ncnc3c2ncn3[C@H]2CN(Cc3cccs3)C[C@@H](CO)O2)CC1,"inconclusive: 20.6 µM [rising, single point]",
CCCc1ccc(-c2cc(C(=O)N3CCN(c4ccccn4)CC3)c3ccccc3n2)cc1,"inconclusive: 20.6 µM [cytotoxic, partial curve]",
CCCCCn1c(=N)n(CC(O)COc2ccccc2OC)c2ccccc21 (stereo not drawn),"inconclusive: 20.6 µM [cytotoxic, partial curve] and inconclusive: 8.2 µM [cytotoxic, partial curve]",
Cc1ccc(Cn2nc(C)c(NC(=O)c3cc(-c4ccco4)on3)c2C)cc1,"inconclusive: 35.5 µM [cytotoxic, single point]",
O=C(CNC(=O)c1ccco1)OCc1ccccc1F,inactive,
COC(=O)c1c(NC(=O)c2ccccc2[N+](=O)[O-])sc2c1CC(C)(C)NC2(C)C,,inconclusive: -32.3% [cytotoxic]
COCC1CCCN(C(=O)c2cc(COc3ccc4ncccc4c3)on2)C1 (stereo not drawn),inactive,
Cc1ccsc1/C=C1/CN(C)Cc2c1nc1ccccc1c2C(=O)O,inactive,
Cc1cnc(NC(=O)CCc2ccccc2)s1,"inconclusive: 29.1 µM [cytotoxic, single point]",
Cc1cccnc1C(NC(=O)C1CCN(Cc2ccc(Cl)cc2)CC1)c1ccccc1 (stereo not drawn),"inconclusive: 29.1 µM [cytotoxic, single point]",
CCn1nnc(NC(=O)c2ccc([N+](=O)[O-])o2)n1,"inconclusive: 18.4 µM [cytotoxic, single point]",
COc1ccc(CC2(CO)CCN(Cc3cc4ccccc4o3)CC2)cc1,inactive,
COc1ccc(C(C)=O)cc1COc1ccc([N+](=O)[O-])c(C)c1,"inconclusive: 32.6 µM [cytotoxic, single point]",

SMILES,Potency,"activity, negative = toxicity"
CC(C)(C)c1ccc(-c2nnc(SCCC#N)n2C2CCCC2)cc1,"inconclusive: 25.9 µM [cytotoxic, single point]",
COc1ccccc1-c1cc(C(=O)N/N=C/c2ccc(C)o2)c2ccccc2n1,"inconclusive: 20.6 µM [cytotoxic, single point]",
Cc1cc(-c2ccc(C)c(S(=O)(=O)NCc3ccc(Br)cc3)c2)on1,"inconclusive: 18.4 µM [cytotoxic, single point]",
COc1ccccc1-c1ncn(Cc2cccc(-c3ccccc3)c2)c1-c1cc(C)cc(C)c1,"inconclusive: 29.1 µM [cytotoxic, single point]",
CC1(C(=O)Nc2ccc3[nH]ncc3c2)CCN1C(=O)CCc1ccccc1 (stereo not drawn),inactive,
COc1cc(C2CC(c3cccs3)=NN2C(=O)CCl)ccc1OC(F)F (stereo not drawn),active: 2.59 µM,
O=C(O)CCCCCN1C(=O)CSC1=S,inactive,
O=C(c1ccc(COc2ccccc2Cl)o1)N1N=C(C(F)F)CC1(O)C(F)F (stereo not drawn),,inconclusive: -32.2% [cytotoxic]
O=C(CSc1n[nH]c(-c2ccccc2)n1)N1CCOCC1,"inconclusive: 7.31 µM [rising, partial curve, poor fit]",
NC(=O)SCC(=O)Nc1ccc(Cl)c(Cl)c1,"inconclusive: 23.1 µM [cytotoxic, single point]",
O=C1CC(NNc2ccccc2)C(=O)N1c1ccccc1 (stereo not drawn),,inconclusive: -32% [cytotoxic]
CCOc1ccccc1N1CCN(C(=O)c2cc3c(C)cc(C)cc3[nH]2)CC1,"inconclusive: 20.6 µM [cytotoxic, single point]",
O=C(Nc1cccc(S(=O)(=O)N2CCCCC2)c1)c1cnccn1,inactive,
CC(=O)c1ccc(NC(=O)Nc2ncn(Cc3cccc(C)c3)n2)cc1,inactive,
CN(C)S(=O)(=O)c1cccc(-c2nn(-c3ccccc3)cc2/C=C2\SC(=S)NC2=O)c1,active: 10.3 µM,
CCc1c(-c2ccccc2F)ncn1Cc1cccc(-c2ccccc2)c1,active: 8.2 µM,
Cc1cc(N=Nc2ccc(C)c(N=Nc3cc(C)c(N)cc3N)c2)c(N)cc1N,inactive,
CCn1c(CCCOc2ccc(Cl)cc2Cl)nnc1SCC(=O)Nc1cc(F)ccc1C,"inconclusive: 20.6 µM [cytotoxic, single point]",
COc1cc(/C=C2/C(=O)c3cccc([N+](=O)[O-])c3C2=O)c(Br)cc1O,active: 18.4 µM,
CC1Cc2cc(/C(O)=C3/C(=O)C(=O)N(CCCN4CCOCC4)C3c3ccc(C(C)C)cc3)ccc2O1 (stereo not drawn),inactive,
COc1cc2c(cc1NC(=O)c1cccc([N+](=O)[O-])c1)oc1ccccc12,"inconclusive: 3.66 µM [cytotoxic, single point]",
CC(C)(C)NCC(O)COc1ccccc1C(=O)CCc1ccccc1 (stereo not drawn),"inconclusive: 25.1 µM [cytotoxic, single point]",
